Five compounds from the supplement of paper PMC4604168 (melanoma cell lines) can be followed below.

Molecules are shown by their SMILES. This is one part of the list. Many values rest on one well or one pass, so single values are uncertain.
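Note: cell number obtained by counting DAPI-stained nuclei in high-throughput microscope images with image analysis software, screen run in 1,536-well plates.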

In the test the test system is A2058. Description: cell count relative to DMSO control; melanoma cells; higher = more viable cells. Particulars: library dose: low library concentration; 72 h.
Take `Cn1cnc2c(F)c(Nc3ccc(Br)cc3Cl)c(C(=O)NOCCO)cc21` [selumetinib] + COc1ccc(C2=N[C@@H](c3ccc(Cl)cc3)[C@@H](c3ccc(Cl)cc3)N2C(=O)N2CCNC(=O)C2)c(OC(C)C)c1 [Nutlin-3] (first compound 0.015 µM, partner dose 0.1 µM): the cell count was determined as 91%.
The value for `C[C@]1(O)C[C@@H](c2nc(-c3ccc4ccc(-c5ccccc5)nc4c3)c3c(N)nccn32)C1` + CN(c1ncccc1CNc1nc(Nc2ccc3c(c2)CC(=O)N3)ncc1C(F)(F)F)S(C)(=O)=O [PF562271] (first compound 0.4 µM, partner dose 0.08 µM) was 70%; that for `CCN(CC)CCNC(=O)c1c(C)[nH]c(/C=C2\C(=O)Nc3ccc(F)cc32)c1C` [sunitinib] + CC(=O)c1c(C)c2cnc(Nc3ccc(N4CCNCC4)cn3)nc2n(C2CCCC2)c1=O [palbociclib] (first compound 0.4 µM, partner dose 0.04 µM) was 122%.
As for `C[C@]1(O)C[C@@H](c2nc(-c3ccc4ccc(-c5ccccc5)nc4c3)c3c(N)nccn32)C1` + CNC(=O)c1cc(Oc2ccc(NC(=O)Nc3ccc(Cl)c(C(F)(F)F)c3)cc2)ccn1 [sorafenib] (first compound 0.4 µM, partner dose 0.4 µM), the figure is 99.2%; as for `Cn1cnc2c(F)c(Nc3ccc(Br)cc3Cl)c(C(=O)NOCCO)cc21` [selumetinib] + COc1ccc(Cl)c(Nc2nc3ccccc3nc2NS(=O)(=O)c2cccc(NC(=O)C(C)(C)N)c2)c1 [XL147] (first compound 0.015 µM, partner dose 0.8 µM), 95.9%.
